Source: the RNAGym collection of RNA variant scans (doi:10.1073/pnas.2313332121)
This sample is rich in variants without activity.

B1: TPR 5TU (parent)
chain: GGAUCUUCUCGAUCUAACAAAAAAGACAAAUCUGCCACAAAGCUUGAGAGCAUCUUCGGAUGCAGAGGCGGCAGCCUUCGGUGGCGCGAUAGCGCCAACGUUCUCAACUAUGACACGCAAAACGCGUGCUCCGUUGAAUGGAGUUUAUCAUG

Variants of: B1
Test: polymerase ribozyme fitness, log enrichment relative to wild type (log ratio); higher = more active; in vitro selection for triplet polymerase activity
Procedure, shortened: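 Mutant libraries of both subunits of a heterodimeric triplet polymerase ribozyme were PCR-built, transcribed, and selected once in triplicate, with frozen incubation at −7 °C and capture of gel-excised extended constructs on streptavidin beads before RT-PCR. Illumina sequencing of input and output libraries was filtered to genotypes with ≥10 input reads and ≥1 read per output. Fitness is the logarithm of genotype enrichment over wild-type enrichment, using inverse-variance-weighted replicate averages. The logarithm is base 2.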

Variant | polymerase ribozyme fitness (log ratio)
A21G G84U C118U | -1.39
A21G G92C | 0.365
A21G G92C C108A A120G A122U C129U | ≤ -4.2
A21G G143A | -0.569
A21G U33G A37U C85U C95U G141C | ≤ -4.2
A21G U33G A52C A64C C75G C93G U151G | ≤ -4.2
A21G U33G A52C U61G A64G U78G C95A A106G A142G | ≤ -4.2
A21G U53A A60U C96U C99G A110G | ≤ -4.2
A21G U55A C57A C93A C105A A138C | ≤ -4.2
A21G U55A C96U G117A | 0.86
A21G U61A A73G G88C U135A | ≤ -4.2
A21U A22C A30G G83C C87U G143C | ≤ -4.2
A21U A22G A60G C132G U144C | -4.13
A21U A23U G34C U78A C87A U135G G140U A147G | ≤ -4.2
A21U A24C C27A A73G G80C U90A | ≤ -4.2
A21U A24C C32G G50C G67A G94A | ≤ -4.2
A21U A26C | -1.48
A21U A26C A40U G71A C76A A91G C96A G141C | ≤ -4.2
A21U A26C A52G U90A | ≤ -4.2
A21U A26C G141A | -3.34
A21U A29C G88C A113C | ≤ -4.2
A21U A29U C63U A73G C76A U135C | ≤ -4.2
A21U A29U C85U G141C | ≤ -4.2
A21U A29U G50A U56A G92C U151G | ≤ -4.2

Variant | polymerase ribozyme fitness (log ratio)
A21U A29U U33G C35U G81U G84A | -4.1
A21U A30C A40G A97G C118G | ≤ -4.2
A21U A37C C54U C57U C95G C105U C114A | ≤ -4.2
A21U A37C U53A C96A G140C | ≤ -4.2
A21U A39C C108U | ≤ -4.2
A21U A39U C76A A91U C103A | ≤ -4.2
A21U A40C | 1.56
A21U A40G U61G A91G G94U U145A | ≤ -4.2
A21U A47C A66G C76U C93U U101G U139A | ≤ -4.2
A21U A47G U55A C96A G133U | ≤ -4.2
A21U A49C G80U G88C U102G G124A U144G A147U | ≤ -4.2
A21U A52C U61A C63A A64U A66C C72U G81A G84A | ≤ -4.2
A21U A52G C87U C114U U144G | -3.22
A21U A52U U53A U55A G71C C79U C95G C103G C125A C149U | ≤ -4.2
A21U A73C C87A | ≤ -4.2
A21U C27A U44G C87A A137U | ≤ -4.2
A21U C27G C93A C114U G141U | ≤ -4.2
A21U C32A C36A G42A G50U C63A G70A G94U C99G C118G | ≤ -4.2
A21U C36A A40C C85U C99A G143A | ≤ -4.2
A21U C36A G80A G88A G100U G124C G133A G143C U148A | ≤ -4.2
A21U C36G U44C C54G G74U A89G A120C U134G | ≤ -4.2
A21U C38A G81A | 0.0427
A21U C43A U53A A60C U61A C76A C87U C95G U146C U148G | ≤ -4.2
A21U C54A U55A A89G G141C U146C | ≤ -4.2

Variant | polymerase ribozyme fitness (log ratio)
A21U C54A U55A G71A C75U G80A C87G A97U C132G G141U | ≤ -4.2
A21U C54U A60U U61A C75A C96G C105A C125U | ≤ -4.2
A21U C57A C76U C116A | 0.702
A21U C57A U77C C95U C96A C103G C108G | ≤ -4.2
A21U C69A G88U A97C | ≤ -4.2
A21U C72U A122U | -0.472
A21U C75A A98G U101A C103G | ≤ -4.2
A21U C87A C96A C99G C125U G140C | ≤ -4.2
A21U C87G | ≤ -4.2
A21U C87U | -0.254
A21U C87U G92A U151C | ≤ -4.2
A21U C95A U146G | -0.389
A21U C96G | -0.697
A21U G25A A89C | -3.68
A21U G25C C51U A66G | ≤ -4.2
A21U G25U A64C C85U U135G | ≤ -4.2
A21U G42A C87U G92U C93A C105U C118A U127A A150U | ≤ -4.2
A21U G42C G83A U109G U151G | ≤ -4.2
A21U G50A C63G A89G C95U C116U | -1.96
A21U G50C | -3.57
A21U G58A G124C G133A U148G C149U | ≤ -4.2
A21U G62A G67A G92U G152U | ≤ -4.2
A21U G65U C85U C105A U144A | ≤ -4.2
A21U G68C C69G C116U | ≤ -4.2

Variant | polymerase ribozyme fitness (log ratio)
A21U G80U G94A A147U | -0.607
A21U G83C | -1.57
A21U G84A G88U C96G A113U U144G | ≤ -4.2
A21U G84C G128U | ≤ -4.2
A21U G88A | -3.62
A21U U33G A49C G50C C54A U82G G92U | ≤ -4.2
A21U U33G A122U U144G | -3.94
A21U U33G G58U A66C G71A G80A C95A A150G | ≤ -4.2
A21U U44A U82C G84A A137C G140A | ≤ -4.2
A21U U45A A91U | ≤ -4.2
A21U U45A C51U G68U C76A C85U U127A | ≤ -4.2
A21U U55G A60G C87A G133U | ≤ -4.2
A21U U56A A66G G68A G84A G86U C103A | ≤ -4.2
A21U U56A C75A G88A | ≤ -4.2
A22C A23U G25A | ≤ -4.2
A22C A24G C51G A52C U56A A121C | ≤ -4.2
A22C A24U G25C G84U U101G U146G | ≤ -4.2
A22C A26U A39U U53G A66C A150G | ≤ -4.2
A22C A28C A60C G88U C93A U109G | ≤ -4.2
A22C A28C U61G A91C C95U A98G | ≤ -4.2
A22C A28G C36A U55A C87A C118G | ≤ -4.2
A22C A28U A47C U61G C79G C95U C118A | ≤ -4.2
A22C A29C A39G C57A | ≤ -4.2
A22C A29U G48A G124C | ≤ -4.2

Variant | polymerase ribozyme fitness (log ratio)
A22C A30C U61A C69G C76U A97U A115U A142C A150U | ≤ -4.2
A22C A30G C35U A47G C95A C132G | ≤ -4.2
A22C A30G G86A U102G A122U | ≤ -4.2
A22C A37U U61G C85G A91U U146A | ≤ -4.2
A22C A39C | -2.49
A22C A40G U55G G88U C96A | ≤ -4.2
A22C A41C G68U U144G | ≤ -4.2
A22C A49C G84C G94U | ≤ -4.2
A22C A52C G94C G136U | ≤ -4.2
A22C A52C U55A C76A G81A A137G | ≤ -4.2
A22C A66C C103G G126C | ≤ -4.2
A22C A91U C125A | ≤ -4.2
A22C A115C C129G | ≤ -4.2
A22C C27A G42A U44A C85G | ≤ -4.2
A22C C27A U56A C85U C93A C99G A138U | ≤ -4.2
A22C C27G C76U C96G G140U | ≤ -4.2
A22C C27G G42A G58U G83C | ≤ -4.2
A22C C27U A49C C51U C76A C87G C93G A142U | ≤ -4.2
A22C C35G U56C C69G G86A C108U G128U U144C | ≤ -4.2
A22C C36A G48U C75U C87G | ≤ -4.2
A22C C38A A39C G48U G83A | ≤ -4.2
A22C C38U G58U A60C C85A C87U G133A G140U | ≤ -4.2
A22C C75U U77C G83A A89C | ≤ -4.2
A22C C76A A89G C95G | -4.19

Variant | polymerase ribozyme fitness (log ratio)
A22C C85A | -1.08
A22C C85A A115U U127A C131G U146G | ≤ -4.2
A22C C85U | -0.656
A22C C85U A119U A120U G140U | ≤ -4.2
A22C G34U G50A C54U C93U C105G G112C | ≤ -4.2
A22C G42A C85U U127G U130C | ≤ -4.2
A22C G48C C51U G70C C72U C105U G143U | ≤ -4.2
A22C G48C G50C C96A A110U G124A | ≤ -4.2
A22C G50A U55G U77C G94A | -4.04
A22C G50C U55A C85A C116A U127G | ≤ -4.2
A22C G84U A98G G140U | ≤ -4.2
A22C G84U A98U G140U | ≤ -4.2
A22C G84U C99A U127A | ≤ -4.2
A22C U44A A60C C99G G117A | ≤ -4.2
A22C U44A C85U C103G C125G G140A | ≤ -4.2
A22C U44G G94A | ≤ -4.2
A22C U55A G58A G65A G83U C95U C108A C123U G128U | ≤ -4.2
A22G A23C A28C A41C U44G U55A G68C A91G U146A | ≤ -4.2
A22G A23U C35A C75A C95G | ≤ -4.2
A22G A24C U90C C96A U102G A119C G141A U146C C149U | ≤ -4.2
A22G A24G A28G C51U C76A | ≤ -4.2
A22G A24U C85U G86A G88A G100U U109G A119G U135A | ≤ -4.2
A22G A26G U55A C85A | ≤ -4.2
A22G A26U C27U C57G C85A | ≤ -4.2

Variant | polymerase ribozyme fitness (log ratio)
A22G A28C U33G C93A G94C C95U A121U | ≤ -4.2
A22G A28G A52U G80A C93G U101C A113U G140U | ≤ -4.2
A22G A29U G46U G92U U135C | ≤ -4.2
A22G A30C A39C G86A G141U | ≤ -4.2
A22G A37C C76G C85U U146G | ≤ -4.2
A22G A40U U44G A47C C85U C96A A98G A121C | ≤ -4.2
A22G A41C G86C U151A | ≤ -4.2
A22G A52G G128C | -3.48
A22G A52U U56A A91U C93A A142U | ≤ -4.2
A22G A91U A97G G126A | ≤ -4.2
A22G A91U A122C U144A | ≤ -4.2
A22G C27G A29G A49C U53A C54G C79U G83U C93G U127C | ≤ -4.2
A22G C27U U44A A52C A73G C95U | ≤ -4.2
A22G C35A U56C C125U U134G U148A | ≤ -4.2
A22G C35U A39C U127G C129A | ≤ -4.2
A22G C36A G48A C95G G140C | ≤ -4.2
A22G C36U C87U | -3.06
A22G C36U G84C A106G U127G | ≤ -4.2
A22G C43A C95U A122U G143U | ≤ -4.2
A22G C43A G59U A60G G81A C85U G143U U144G | ≤ -4.2
A22G C54U C85U C116G | 1.12
A22G C54U U56A C76U G94C U145A | -0.624
A22G C63A C85G A110C | ≤ -4.2
